Assay results published in the BET-seq Pho4 binding data (Le et al. 2018).
Some of the results follow. Values were computed here from the reads of four pooled replicates and scatter widely.

Molecular target: T1, Pho4 (S. cerevisiae) (UniProt P07270)
T1 sequence: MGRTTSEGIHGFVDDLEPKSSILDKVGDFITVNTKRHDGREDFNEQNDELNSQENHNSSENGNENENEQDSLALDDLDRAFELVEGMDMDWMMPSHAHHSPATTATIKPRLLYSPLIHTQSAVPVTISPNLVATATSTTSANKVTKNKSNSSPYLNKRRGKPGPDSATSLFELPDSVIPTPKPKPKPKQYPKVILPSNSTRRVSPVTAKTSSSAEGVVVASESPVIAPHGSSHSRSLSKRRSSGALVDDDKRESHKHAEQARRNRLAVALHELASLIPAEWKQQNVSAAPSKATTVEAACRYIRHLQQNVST
Assay: relative binding free energy (BET-seq); higher = weaker binding
Details: reference: library average

Sequence | relative binding free energy [kcal/mol]
GTTGACACGTGGTCGA | -0.11
AGTGACACGTGTACGG | -0.06
TATGCCACGTGTTGTG | -0.03
GGTTGCACGTGTAGCG | 0.15
TTTTGCACGTGCGGGT | -0.04
CAAGGCACGTGCGGTA | -0.04
TGGTACACGTGTGAGA | 0.19
TAAGGCACGTGTAACG | 0.03
TGGGGCACGTGGTTCC | -0.12
GTAATCACGTGGTGTT | 0.05
ATCGTCACGTGCGTGG | -0.02
ATGGGCACGTGAAAGG | 0.1
GGTAGCACGTGTTTCT | 0.03
CGCGGCACGTGGATTG | 0.14
GGGGGCACGTGCGATG | -0.05
TTGTGCACGTGGTGAG | -0.06
TTAAGCACGTGGGAGA | -0.14
CGATACACGTGGGGTA | -0.08
GGTAACACGTGGGGAT | 0.04
TGGATCACGTGTGGCT | 0.13
ACGGACACGTGAGTGG | 0.18
TTTATCACGTGGGATC | 0.21
GGGAGCACGTGGTTTA | -0.12
GTTTGCACGTGGAGCG | -0.01
GGGCGCACGTGAATTG | 0.2

Sequence | relative binding free energy [kcal/mol]
TAATACACGTGGTTGT | 0
ATGATCACGTGTTAGT | 0.22
CTAGTCACGTGGTCGG | 0.09
TGTTACACGTGGCCTG | -0.11
GGTCACACGTGTTTAG | 0.21
GCGGGCACGTGCTGGG | -0.2
TTGGGCACGTGTAATG | 0.03
TGTCGCACGTGTTTCG | -0.08
TTTTTCACGTGGAGCT | 0.25
TGTCCCACGTGTGTTG | -0.17
TTGAGCACGTGCTGAG | -0.12
CAAGTCACGTGGGGCT | -0.04
AGGATCACGTGGCCGG | 0.08
TCTGTCACGTGATATA | 0.21
AGTATCACGTGTTGTA | 0.14
TGATACACGTGTATAG | -0.05
ATTAACACGTGAATGT | 0.24
AGTGCCACGTGTTAGG | -0.06
CTATTCACGTGGGGGA | 0.15
GGTTTCACGTGGTCAA | 0.16
GTTTGCACGTGGGTTT | -0.03
TCAGGCACGTGGGATT | -0.07
GAGGCCACGTGGTGGG | -0.14
TGTGTCACGTGACTAT | 0.24
ATGAGCACGTGGGTAC | -0.2

Sequence | relative binding free energy [kcal/mol]
ATGTTCACGTGATACA | 0.34
GCGGTCACGTGAATGG | 0.36
TGCACCACGTGGGTTT | -0.15
GTATGCACGTGGATGT | -0.07
GGGTGCACGTGGGTAT | -0.06
AATCGCACGTGCGTGT | 0
TAACGCACGTGGGCGG | -0.35
GTTGGCACGTGATTAA | 0.09
CGAGACACGTGTTGGT | -0.02
ACGGGCACGTGATATG | -0.05
GTGGGCACGTGATATG | 0
ATGCGCACGTGAGGGA | -0.02
GGATTCACGTGGCGGT | 0.22
TGGTTCACGTGAAACG | 0.55
AGATTCACGTGTTGAT | 0.2
AACGGCACGTGTGAGT | -0.01
TTGAACACGTGAGGGC | 0.39
TTTCGCACGTGGCAGG | 0
GGCGGCACGTGCGTTG | -0.14
GTTATCACGTGTTGAT | 0.14
AGTTCCACGTGTCTGG | 0.19
ATGTTCACGTGCAGGG | 0.12
ATTCTCACGTGTTTGG | 0.15
ACGTACACGTGTGGTT | 0.06
GGTTCCACGTGGGTAG | -0.06

Sequence | relative binding free energy [kcal/mol]
AATACCACGTGAGGTA | 0.34
TGTGTCACGTGACGAT | 0.13
GGGTCCACGTGAGCGG | 0.3
GTGAACACGTGTAGAT | 0.16
TGAATCACGTGGATAT | 0.04
TTAGGCACGTGTCATT | -0.18
GGTCTCACGTGAGAGT | 0.4
TAGTGCACGTGCTAGT | -0.1
TTGTGCACGTGAGGAG | 0.25
CAGTACACGTGTGTGT | 0
ATGTACACGTGATAGT | 0.12
TTAGGCACGTGCAAAG | -0.02
TATTACACGTGTTGAT | 0.11
ATTGTCACGTGGTACT | 0.08
TTTTACACGTGTTGCA | 0.12
TGTAACACGTGAGCTG | 0.27
ATTGGCACGTGATTTC | -0.02
CTAGACACGTGGTGGA | -0.09
TTATACACGTGTGTAC | 0.08
ATGGGCACGTGATTAC | 0.13
GCAGGCACGTGGGGAA | -0.18
GTCGCCACGTGGTTGG | -0.15
GAATGCACGTGCGTGT | -0.01
GGGTGCACGTGAATGG | 0.28
ACTTTCACGTGGGGGT | 0.22

Sequence | relative binding free energy [kcal/mol]
TCAAACACGTGGGGTT | 0.03
TTTGCCACGTGTGGGA | -0.14
GACATCACGTGTGTAT | 0.29
TGAGACACGTGGTTCG | -0.09
GTACGCACGTGAGTGT | 0.15
CTGGGCACGTGTTGCT | -0.14
TGTGGCACGTGTAAGT | 0.1
GTGTGCACGTGGCACG | -0.03
CGGGGCACGTGAAAGT | 0.26
ATGTGCACGTGTATAC | -0.05
ACGAGCACGTGGGTTA | -0.01
AGTGGCACGTGATGCA | 0.01
AGGTACACGTGTATGG | 0.09
GTTGCCACGTGGTGAT | -0.04
GGTATCACGTGTGGGG | 0.24
CGGTACACGTGGTGGC | -0.09
TCAGTCACGTGGTACG | 0.02
TGTTACACGTGGGTCA | -0.13
GGTAACACGTGGATAG | 0.22
GAGTACACGTGAGGTA | 0.26
GGCTGCACGTGTCAGG | 0.04
TCGTTCACGTGGTATG | 0.07
AGTTACACGTGTTCTT | 0.12
GTTGACACGTGTGTTT | 0.18
TGTTGCACGTGGGCCG | -0.16

Sequence | relative binding free energy [kcal/mol]
AGGTGCACGTGACTTA | 0.1
TAGATCACGTGTATGC | 0.19
GGGCGCACGTGTAATG | -0.05
CGGGGCACGTGTGTCT | -0.21
GTCTTCACGTGTAAGA | 0.36
TCTGTCACGTGGCTTG | -0.1
AAAGTCACGTGGATGG | 0.08
AGATGCACGTGAAGGT | 0.16
AATATCACGTGAGGTA | 0.51
GATTTCACGTGGGTAT | 0.16
TTCTTCACGTGTACTT | 0.29
TTTTTCACGTGTGACC | 0.41
AGCTACACGTGGTATT | 0.04
TGTGTCACGTGAGCGT | 0.17
GAAGGCACGTGGTTGA | -0.1
AGTTACACGTGTTGGA | 0.06
TACGGCACGTGTTGGC | -0.14
ATTAACACGTGTAATT | 0.13
ATTAGCACGTGCTATG | -0.11
AGTATCACGTGAAATG | 0.29
GAGAACACGTGTTAGG | 0.19
